From publication PMC10120551, “Novel Glu-based pyrazolo[3,4-d]pyrimidine analogues: design, synthesis and biological evaluation as DHFR and TS dual inhibitors” (Journal of Enzyme Inhibition and Medicinal Chemistry, 2023)

Experiments:
A549/ATCC = details: Non-small cell lung cancer, five-dose 0.01–100 µM
Protocol: (§1) (Figures S53–S56 in Supporting Information). This assay evaluates GI50, TGI, and LC50 parameters, as cited in Table 1. Their values correspondingly represent the GI level, cytostatic impact, and cytotoxicity parameter. Furthermore, based on the GI50 values, the mean graph midpoints (MG-MID) for both full NCI 59 cell panel and subpanel cancer cell lines were evaluated, affording a median potency parameter for the examined compound 6i, as depicted in Table 2.
(§2) The designed analogues were submitted to NCI-Chemotherapeutic Agents Repository (MD, USA) for screening on a panel of 59 cancer cell lines. All compounds were initially examined at 10 µM concentration (Single-Dose Screen), and then the most efficient analogue 6i was screened further at 0.01–100 µM (Five-Dose Screen). The screening procedures were performed according to NCI-Drug Evaluation Branch protocol using SRB protein assay, as described previously[21]^,[66]. The experimental procedures were detailed in the Supporting Information. […]
(§3) inoculation, the microtiter plates are incubated at 37° C, 5 % CO2, 95 % air and 100 % relative humidity for 24 h prior to addition of experimental drugs.
(§4) After 24 h, two plates of each cell line are fixed in situ with TCA, to represent a measurement of the cell population for each cell line at the time of drug addition (Tz). Experimental drugs […]
(§5) are solubilized in dimethyl sulfoxide at 400-fold the desired final maximum test concentration and stored frozen prior to use. At the time of drug addition, an aliquot of frozen concentrate is […]
(§6) thawed and diluted to twice the desired final maximum test concentration with complete medium containing 50 μg/ml gentamicin. Additional four, 10-fold or ½ log serial dilutions are made to provide a total of five drug concentrations plus control. Aliquots of 100 μl of these different drug dilutions are added to the appropriate microtiter wells already containing 100 μl […]
(§7) of medium, resulting in the required final drug concentrations.
(§8) Following drug addition, the plates are incubated for an additional 48 h at 37°C, 5 % CO2, 95 % air, and 100 % relative humidity. For adherent cells, the assay is terminated by the addition […]
(§9) of cold TCA. Cells are fixed in situ by the gentle addition of 50 μl of cold 50 % (w/v) TCA […]
(§10) (final concentration, 10 % TCA) and incubated for 60 minutes at 4°C. The supernatant is […]
(§11) discarded, and the plates are washed five times with tap water and air dried. Sulforhodamine B (SRB) solution (100 μl) at 0.4 % (w/v) in 1 % acetic acid is added to each well, and plates are […]
(§12) incubated for 10 minutes at room temperature. After staining, unbound dye is removed by […]
(§13) washing five times with 1 % acetic acid and the plates are air dried. Bound stain is subsequently […]
(§14) solubilized with 10 mM trizma base, and the absorbance is read on an automated plate reader […]
(§15) at a wavelength of 515 nm. For suspension cells, the methodology is the same except that the […]
(§16) assay is terminated by fixing settled cells at the bottom of the wells by gently adding 50 μl of 80 % TCA (final concentration, 16 % TCA). Using the seven absorbance measurements [time […]
(§17) zero, (Tz), control growth, (C), and test growth in the presence of drug at the five concentration […]
(§18) levels (Ti)], the percentage growth is calculated at each of the drug concentrations levels.
(§19) Percentage growth is calculated as:
(§20) [(Ti-Tz)/(C-Tz)] x 100 for concentrations for which Ti>/=Tz
(§21) [(Ti-Tz)/Tz] x 100 for concentrations for which Ti<Tz.
(§22) Three dose response parameters are calculated for each experimental agent. Growth inhibition […]
(§23) resulting in a 50% reduction in the net protein increase (as measured by SRB staining) in […]
(§24) control cells during the drug incubation. The drug concentration resulting in total growth inhibition (TGI) is calculated from Ti = Tz. The LC50 (concentration of drug resulting in a […]
(§25) 50% reduction in the measured protein at the end of the drug treatment as compared to that at […]
(§26) the beginning) indicating a net loss of cells following treatment is calculated from [(Ti-Tz)/Tz] […]
(§27) x 100 = -50. […]

EKVX = details: Non-small cell lung cancer, five-dose 0.01–100 µM
Protocol: as §1, §2, §3, §4, §5, §6, §7, §8, §9, §10, §11, §12, §13, §14, §15, §16, §17, §18, §19, §20, §21, §22, §23, §24, §25, §26, §27

HOP-62 = details: HOP-62, Non-small cell lung cancer; five-dose 0.01–100 µM
Protocol: as §1, §2, §3, §4, §5, §6, §7, §8, §9, §10, §11, §12, §13, §14, §15, §16, §17, §18, §19, §20, §21, §22, §23, §24, §25, §26, §27

HOP-92 = details: HOP-92, Non-small cell lung cancer; five-dose 0.01–100 µM
Protocol: as §1, §2, §3, §4, §5, §6, §7, §8, §9, §10, §11, §12, §13, §14, §15, §16, §17, §18, §19, §20, §21, §22, §23, §24, §25, §26, §27

NCI-H226 = details: NCI-H226, Non-small cell lung cancer; five-dose 0.01–100 µM
Protocol: as §1, §2, §3, §4, §5, §6, §7, §8, §9, §10, §11, §12, §13, §14, §15, §16, §17, §18, §19, §20, §21, §22, §23, §24, §25, §26, §27

NCI-H23 = details: NCI-H23, Non-small cell lung cancer; five-dose 0.01–100 µM
Protocol: as §1, §2, §3, §4, §5, §6, §7, §8, §9, §10, §11, §12, §13, §14, §15, §16, §17, §18, §19, §20, §21, §22, §23, §24, §25, §26, §27

NCI-H322M = system: NCI-H322M
Protocol: as §1, §2, §3, §4, §5, §6, §7, §8, §9, §10, §11, §12, §13, §14, §15, §16, §17, §18, §19, §20, §21, §22, §23, §24, §25, §26, §27

NCI-H460 = details: NCI-H460, Non-small cell lung cancer; five-dose 0.01–100 µM
Protocol: as §1, §2, §3, §4, §5, §6, §7, §8, §9, §10, §11, §12, §13, §14, §15, §16, §17, §18, §19, §20, §21, §22, §23, §24, §25, §26, §27

NCI-H522 = details: NCI-H522, Non-small cell lung cancer; five-dose 0.01–100 µM
Protocol: as §1, §2, §3, §4, §5, §6, §7, §8, §9, §10, §11, §12, §13, §14, §15, §16, §17, §18, §19, §20, §21, §22, §23, §24, §25, §26, §27

Structure (SMILES): CCOC(=O)CC[C@H](NC(=O)c1ccc(NC(=O)Cn2cnc3c(c(C)nn3-c3ccc(Br)cc3)c2=O)cc1)C(=O)OCC [Compound 6i]
- TGI (A549/ATCC): 57.3 µM
- TGI (EKVX): 27.3 µM
- TGI (HOP-62): 19.8 µM
- TGI (HOP-92): 23.7 µM
- TGI (NCI-H226): 27.8 µM
- TGI (NCI-H23): 26.7 µM
- TGI (NCI-H322M): 66.6 µM
- GI50 (NCI-H322M; Homo sapiens, NCI-H322M): 21.3 µM
- CC50 (NCI-H322M; Homo sapiens, NCI-H322M, read-out: LC50): > 100 µM
- TGI (NCI-H460): 34.4 µM
- TGI (NCI-H522): 38.2 µM
